The source of these data is PubChem BioAssay AID1346428 (National Center for Advancing Translational Sciences (NCATS), 2018).

Where “and” joins values, the source holds several entries; their conditions need not be identical. Identical values can stand only once. Out of some 48,000 compounds screened, about 1,200 (2.5%) were called active. About 2% were inconclusive and are not listed.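 Rule for the calls: active = activation of at least 60% and not above a set upper limit (about 1 call in 100 departs from these limits); inconclusive = activation of 40% to 60%, or above that upper limit; inactive = activation under 40%.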 Some of the results follow.

The assay addresses Probable G-protein coupled receptor 32 (Homo sapiens) (UniProt O75388). Description: qHTS for Agonists of Human Resolvin D1 Receptor DRV1. Note: 0% is about no effect. The note with it: CHO-K1 GPR32 beta-arrestin PathHunter luminescence, 90 min; at 76.9 µM; stronger effect = higher value; zero percent set by DMSO-only wells. The procedure, abridged: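 Agonism was scored as beta-arrestin recruitment to ProLink-fused GPR32 in stably transfected CHO-K1 cells, giving a chemiluminescent beta-Gal signal; compounds were incubated 90 min at 37 °C.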
Chain of UniProt O75388 (O75388 whole entry, looked up, the tested form may be a part): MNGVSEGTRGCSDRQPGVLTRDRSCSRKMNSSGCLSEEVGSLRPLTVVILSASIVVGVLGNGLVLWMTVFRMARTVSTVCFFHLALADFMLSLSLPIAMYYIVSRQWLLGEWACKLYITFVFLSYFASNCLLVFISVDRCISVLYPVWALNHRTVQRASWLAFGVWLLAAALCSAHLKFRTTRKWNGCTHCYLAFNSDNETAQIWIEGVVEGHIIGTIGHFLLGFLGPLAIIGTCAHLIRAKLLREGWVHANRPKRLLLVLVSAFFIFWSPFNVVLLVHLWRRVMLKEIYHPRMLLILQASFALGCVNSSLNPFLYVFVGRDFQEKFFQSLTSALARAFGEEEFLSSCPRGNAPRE
For orientation: In qHTS, concentration-response curves come from the screen itself.
Consider `Cn1c(=O)c2c(ncn2CC(=O)O)n(C)c1=O`, for which the activation is inactive: 4.46%.
To `Cc1cc(C)c2c(n1)nn1c(C)c(CCC(=O)NCc3ccccc3Cl)c(C)nc21` belongs inactive: -15.1%; to `CN1CCSc2ccc(C(=O)NCc3ccccc3F)cc21`, inactive: -9.98%; to `CCOc1ccc(-c2cc3nc(C4CCN(C(=O)OC(C)(C)C)CC4)c(C(=O)Nc4ccc(C)cc4Cl)cn3n2)cc1`, inactive: -13.9%.
As to `O=S(=O)(c1ccc(Br)cc1)c1nnn2c1nc(Nc1cccc(C(F)(F)F)c1)c1sccc12`, the activation is inactive: -4.94%.
To `COC(=O)c1c(C)sc(-c2c(-c3ccc4c(c3)OCCO4)[nH]c3[nH]c(=O)[nH]c(=O)c23)c1O` belongs inactive: -32.6%; to `COc1ccc(Cl)cc1NC(=O)CSc1c2c(nc3ccccc13)CCC2`, inactive: -28.4%; to `O=C(Nc1nnc(N2CCCCCC2)s1)Nc1ccccc1C(F)(F)F`, inactive: -18.2%.
For the compound `CCC(Sc1nc2ccccc2c2nc(CCc3c(C)n[nH]c3C)nn12)C(=O)Nc1ccc(OC)cc1` (stereo not drawn), the activation was inactive: -13.7%.
As for `COc1cc(C(=O)Nc2nc3c(s2)Cc2c(Br)ccc(OC)c2-3)cc(OC)c1OC`, the activation was inactive: -8.64%.
To `CCN(c1ccccc1)S(=O)(=O)c1ccc(NC(=O)c2cc(=O)c3cc(C)ccc3o2)cc1` belongs inactive: -0.152%; to `O=C(c1ccc2c(c1)N(Cc1ccc(F)cc1)C(=O)c1ccccc1S2=O)N1CCOCC1` (stereo not drawn), inactive: -15%; to `Cc1nn(-c2ccccc2)c(OC(=O)c2ccc(F)cc2)c1S(=O)(=O)c1ccccc1`, inactive: -8.67%.
Turning to `Cc1ccc(NC(=O)c2c(C(=O)Nc3ccccc3)sc3nc(C)cc(=O)n23)c(C)c1`, the activation is inactive: 8.17%.
On to `CCOC(=O)CSc1nc(-c2ccccc2)cc(C(F)(F)F)c1C#N`, for which the activation is inactive: 24.6%.
For the compound `CCn1c(CN2CCCCC2)nc2cc(NC(=O)c3ccccc3[N+](=O)[O-])ccc21`, the activation was inactive: -4.17%.
In the case of `CSc1ncc(C(=O)NCc2ccc(Cl)cc2)c(C(F)(F)F)n1`, the activation is inactive: 18.1%.
For the compound `COc1ccc(C2=C(C)C(N3CCC(C(=O)Nc4cc(C)ccc4C)CC3)=NS2(=O)=O)cc1`, the activation was inactive: -5.77%.
To `CCCn1cc(S(=O)(=O)c2ccc(C)cc2)c(=O)c2cc(OC)c(OC)cc21` belongs inactive: -6.97%; to `COc1cccc(NC(=O)C(=O)NCCc2csc(-c3ccc(C)cc3)n2)c1`, inactive: -25.2%; to `CCN(C(=O)CCNC(=O)Cn1cnc2ccccc2c1=O)c1cccc(Cl)c1`, inactive: 25.1%.
For `S=C(Nc1ccccc1)Nc1nccs1`, the activation was inactive: -57.5%.
As to `CCOc1ccc(C(=O)Nc2ccc(C(=O)OCc3cc(=O)n4ccsc4n3)cc2)cc1`, the activation was inactive: 5.33%.
`CCOC(=O)c1ccc(NC(=O)c2csc3c2CCCC3)cc1`: the activation was inactive: -1.17%.
To `O=C(Nc1cccc2cccnc12)c1cccc2ccccc12` belongs inactive: -2.88%.
Regarding `COC(=O)c1ccc(Cl)cc1NC(=O)NCc1c(-n2cccc2)sc2c1CCCC2`, the activation is inactive: -10.8%.
To `Cc1ccc(CNC(=O)Cn2ncc3c([nH]c4ccc(C)cc43)c2=O)cc1` belongs inactive: -7.42%; to `COc1cccc(N2CCN(C(=O)c3cc4c(=O)n(Cc5cccs5)ccc4nc3C)CC2)c1`, inactive: -17.4%; to `COc1ccccc1NC(=O)CN1C(=O)CC(c2ccc(C)c(C)c2)=Nc2ccccc21`, inactive: -7.19%.
To `Cc1cccc(NC(=O)Cn2cnc(S(=O)(=O)N3CCCC3)c2)c1C` belongs inactive: -10.5%; to `COc1ccc(CCNC(=O)c2ccc(-n3c(C)cc4c3CCCC4)cc2)cc1OC`, inactive: -2.88%; to `CCCc1cc(=O)[nH]c(SCc2nc(-c3ccc(C)cc3)no2)n1`, inactive: -5.52%.
To `COc1ccccc1CCNC(=O)Cc1c(C)c2cc3c(C(C)(C)C)coc3c(C)c2oc1=O` belongs inactive: -9.34%.
As to `COc1ccc(N2CCN(S(=O)(=O)CCNC(=O)COc3cccc(OC)c3)CC2)cc1`, the activation is inactive: -15.3%.
For `CCCSc1ncc(Cl)c(C(=O)Nc2c(C(=O)Nc3ccccc3)oc3ccccc23)n1`, the activation is inactive: -0.0621%.
For `CC(C)Oc1ccc(CNC(=O)Nc2ccc3c(c2)N(C)C(=O)c2ccccc2S3)cc1`, the activation was inactive: -15.1%.
In the case of `Cc1cccc(Cn2c(SCc3ccc(C(=O)N4CCC(C)CC4)cc3)nc3ccncc32)c1`, the activation was inactive: -11.3%.
To `Cc1ccc2c(c1)CC(C)N2S(=O)(=O)c1nnc(NC(=O)c2ccccc2F)s1` (stereo not drawn) belongs inactive: -6.65%; to `CC(C)c1ccccc1NC(=O)CN(c1ccccc1)S(=O)(=O)N(C)C`, inactive: -6.18%.
Consider `Cc1ccc(NC(=O)CCS(=O)(=O)c2ccc(Br)cc2)c(C)c1`, for which the activation is inactive: -10.3%.
Regarding `CCOc1ccc(CNC(=O)c2[nH]c3ccccc3c2Sc2ccc(C)cc2)cc1`, the activation was inactive: -12.4%.
For `O=C(NCCCN1CCN(c2ccc(F)cc2)CC1)c1sc2ncccc2c1-n1cccc1`, the activation was inactive: 14.3%.
As for `O=C(Cn1ccn(-c2cccc(Cl)c2)c(=O)c1=O)c1ccc(F)cc1`, the activation was inactive: -23.1%.
Turning to `Cc1ccc2c(c1)C(=O)C(=O)N2Cc1ccc(OC(C)C)cc1`, the activation is inactive: 28.6%.
`COc1ccc(OC)c(S(=O)(=O)N2Cc3ccccc3CC2C(=O)Nc2ccc(Cl)cc2)c1` (stereo not drawn): the activation was inactive: -20.2%.
`CSc1ccc(C(=O)c2[nH]c(=O)[nH]c2C)cc1`: the activation is inactive: 17.9% and inactive: -0.502%.
To `CCOC(=O)c1cc(-c2ccccc2)n(CCC(=O)Nc2ccc(C)cc2Cl)c1C` belongs inactive: -14.4%.
In the case of `Cc1cc(C)cc(NC(=O)CCS(=O)(=O)c2ccc3nc(C)sc3c2)c1`, the activation was inactive: -7.16%.
For `O=C1C(c2ccc(F)cc2)N(Cc2ccccc2Cl)C(=O)CN1C1CCCCC1` (stereo not drawn), the activation was inactive: 3.84%.
Regarding `Cc1ccc(C(=O)N2CCC(N3CCN(Cc4ccc(F)cc4)C(=O)C3=O)CC2)cc1`, the activation is inactive: -9.96%.
As for `Cc1ccc(-n2nc(CO)c(C(=O)NCCCCc3ccccc3)n2)cc1`, the activation was inactive: -11.4%.
Take `CCOc1ccc(-c2nn(-c3ccccc3)cc2C2NC(=O)NC(C)=C2C(=O)OC(C)C)cc1C` (stereo not drawn): the activation is inactive: 14.7%.
For the compound `COc1ccc(CCNC(=O)CCCCn2c(=O)c3ccccc3n(Cc3ccc(Cl)cc3)c2=O)cc1OC`, the activation was inactive: -3.68%.
`COc1cccc(CNC(=O)c2oc3ccc4c(c3c2C)C(=O)CC(C)(C)O4)c1OC`: the activation was inactive: -24.3%.
With `CCN(CC)CCn1c2c(c(SCC(=O)Nc3cccc(C(F)(F)F)c3)nc1=O)CCC2`, the activation is inactive: -8.26%.
To `CCOc1ccc(-c2cn3c(n2)sc2cc(C(=O)NCCCN(CC)CC)ccc23)cc1` belongs inactive: -9.48%; to `Cc1cccc(CNC(=O)Cc2ccc(NC(=O)N3CCCCc4ccccc43)cc2)c1`, inactive: 0.356%.
As for `CCOC(=O)c1[nH]c(C)c(CCC(=O)NC(C)c2ccccc2)c1C` (stereo not drawn), the activation is inactive: -14.9%.
In the case of `O=C(Nc1cc2ccc(O)cc2oc1=O)c1ccc(F)cc1`, the activation is inactive: 5.26%.
On to `COc1ccc(CNC(=O)c2cc3c(=O)n4cccc(C)c4nc3s2)cc1`, for which the activation was inactive: -0.319%.
To `CCOC(=O)c1ccc(NC(=O)C(C)N(c2ccc(OCC)cc2)S(C)(=O)=O)cc1` (stereo not drawn) belongs inactive: 19.2%.
As for `Cc1c(C(=O)Nc2ccc(F)c(F)c2)oc2ccc(S(=O)(=O)N(C)C3CCCCC3)cc12`, the activation was inactive: -2.44%.
With `Cc1ccc(N(C)C(=O)Cn2cc(S(=O)(=O)N3CCCC3)c(S(=O)(=O)N3CCCC3)c2)cc1`, the activation was inactive: -0.743%.
For the compound `O=C(Nc1ccc(F)cc1)C1CCCN(c2ncnc3c2nc2n3CCCCC2)C1` (stereo not drawn), the activation was inactive: -6.31%.
As to `COc1cccc(-c2nc(CS(=O)(=O)CC(=O)NCCc3ccc(OC)c(OC)c3)c(C)o2)c1`, the activation is inactive: -11.2%.
To `C=Cc1ccc(CSc2nnc(C)n3c2cc2occc23)cc1` belongs inactive: 22.1%; to `COc1ccc(NC(=O)c2oc3c(c2C)-c2nn(Cc4ccccc4Cl)cc2CC3)cc1OC`, inactive: -4.81%; to `Cc1ccc(-n2c(=O)c3c(cnn3C)n(CC(=O)Nc3c(C)cccc3C)c2=O)cc1`, inactive: -26.4%.
Regarding `Cn1c(=O)c2c(n3ncnc13)NC(=O)CC2c1cccc(F)c1` (stereo not drawn), the activation is inactive: -19.5%.
To `COc1ccc(NS(=O)(=O)c2ccc3c(c2)CC(C)N3C(C)=O)c(OC)c1` (stereo not drawn) belongs inactive: 21.4%; to `CCOC(=O)C1=C(CN2CCN(c3cccc(OC)c3)CC2)NC(=O)NC1c1ccc(OC)cc1` (stereo not drawn), inactive: -18.2%.
For `COc1ccc(CNC(=O)C2CCN(c3nnc(-n4cccc4CNc4ccc(C)cc4)s3)CC2)c(OC)c1`, the activation was inactive: -30.2%.
To `Cc1ccccc1-n1c(=O)c2c3c(sc2n2cnnc12)CCCC3` belongs inactive: 13.4%.
Take `Cc1ccc(S(=O)(=O)c2nc(-c3cccc(C)c3)oc2N2CCCCC2)cc1`: the activation is inactive: -33.3%.
For the compound `O=S(=O)(c1ccc(F)cc1)N1CCC(n2c(C(F)(F)F)nc3cccnc32)CC1`, the activation was inactive: -8.59%.
For `O=S(=O)(Nc1cccc(-c2ccc(N3CCCC3)nn2)c1)c1ccc(F)cc1F`, the activation was inactive: -18.8%.
Consider `COc1ccc(N2CCN(C(=O)CN(C)S(=O)(=O)c3cccs3)CC2)cc1`, for which the activation was inactive: 15.5%.
To `COc1ccc(NC(=O)CSc2c3c(nc4ccccc24)CCC3)c(OC)c1` belongs inactive: -11.5%; to `CCN(CC)C(=O)Cn1c(=O)cc(C)c2c(C)nn(C)c21`, inactive: 6.06%.
As for `CCOC(=O)c1ccccc1NC(=O)c1sc2ccccc2c1Cl`, the activation is inactive: 3.09%.
In the case of `COc1ccc(-c2cn3nc(N4CCCC(C(=O)NCc5ccccc5C)C4)sc3n2)cc1` (stereo not drawn), the activation is inactive: -26.2%.
As to `COc1cccc(Nc2sc(C(=O)c3ccc(F)cc3)c(N)c2C(=O)NCc2ccc(C)cc2)c1`, the activation was inactive: -30.4%.
To `COc1ccc(Cn2ccnc2SCC(=O)Nc2cc(C(F)(F)F)ccc2Cl)cc1` belongs inactive: -27.5%.
